The list shows a part of the results.
Target: no compound (DMSO)
Assay: log2 fold change of degron read counts, EGFP-low vs EGFP+ sorted cells; higher = lower degron-EGFP level without compound (poor expression or instability)
Conditions: compound: DMSO control; 18 h
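Also: jurkat cells carrying a lentiviral library of mutant zinc finger degrons fused to EGFP plus mCherry, mCherry+ cells FACS sorted, degron abundance counted by next-generation sequencing.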

Sequence | log2 fold change of degron read counts
FDCNQCGATFTQKGNLLRHIKL | -1.54
FICEICGAKFTQKGNLLRHIKL | -1.24
LTCNQCGFVCTQKGNLLRHIKL | 0.325
FMCNQCGHFFTQKGNLLRHIKL | 0.613
FACNQCGHHFTQKGNLLRHIKL | -0.449
FKCEVCGAYFTQKGNLLRHIKL | -1.37
FHCNICGACFTQKGNLLRHIKL | -0.302
FFCPICGRIFTQKGNLLRHIKL | -0.118
FICNQCGAQFTQKGNLLRHIKL | -1.01
LHCNQCGFQCTQKGNLLRHIKL | 0.31
LFCPICGFFCTQKGNLLRHIKL | 2.52
FGCPQCGALFTQKGNLLRHIKL | 0.0912
FQCEICGRCFTQKGNLLRHIKL | -1.17
LRCEICGFNCTQKGNLLRHIKL | 0.458
FHCNQCGRSFTQKGNLLRHIKL | -0.0142
FRCEICGRIFTQKGNLLRHIKL | -0.92
FVCDICGADFTQKGNLLRHIKL | -1.1
FICNVCGAVFTQKGNLLRHIKL | -0.142
FCCPICGAVFTQKGNLLRHIKL | 0.5
FQCPQCGAIFTQKGNLLRHIKL | -0.66
FACNQCGATFTQKGNLLRHIKL | -0.96
FFCNQCGRMFTQKGNLLRHIKL | 0.296
FRCNQCGHTFTQKGNLLRHIKL | -0.55
LSCNQCGFQCTQKGNLLRHIKL | 0.505
FACSVCGHPFTQKGNLLRHIKL | 0.453

Sequence | log2 fold change of degron read counts
FICNQCGRCFTQKGNLLRHIKL | -0.0467
FMCEQCGAHFTQKGNLLRHIKL | -1.21
FWCEQCGAVFTQKGNLLRHIKL | 0.113
FKCEICGRIFTQKGNLLRHIKL | -0.731
FMCPVCGAHFTQKGNLLRHIKL | -0.179
FHCNICGANFTQKGNLLRHIKL | -0.812
LLCNQCGFHCTQKGNLLRHIKL | 0.915
FKCEQCGAFFTQKGNLLRHIKL | -1.62
FQCPICGHTFTQKGNLLRHIKL | -0.283
FFCNQCGHWFTQKGNLLRHIKL | 1.02
FTCEICGAIFTQKGNLLRHIKL | -1.3
LWCEICGFWCTQKGNLLRHIKL | 2.55
FFCDQCGATFTQKGNLLRHIKL | -1.02
FLCNICGAEFTQKGNLLRHIKL | -1.65
FECNQCGAWFTQKGNLLRHIKL | -0.486
FLCDVCGACFTQKGNLLRHIKL | -0.829
FMCPVCGATFTQKGNLLRHIKL | -0.233
FICDVCGAFFTQKGNLLRHIKL | -1.2
FHCDVCGAPFTQKGNLLRHIKL | -0.603
FSCEICGAYFTQKGNLLRHIKL | -0.204
FTCDQCGAAFTQKGNLLRHIKL | -1.79
FYCEVCGAGFTQKGNLLRHIKL | -1.66
FWCNICGAVFTQKGNLLRHIKL | 1.07
FKCEICGHKFTQKGNLLRHIKL | -1.91
FSCPVCGACFTQKGNLLRHIKL | -0.358

Source: the supplement of paper PMC12645437, “Orthogonal IMiD-Degron Pairs Induce Selective Protein Degradation in Cells” (ACS Chemical Biology, 2025)
